Measurements as given in article PMC4336329 (PLoS ONE, 2015).
The campaign covered roughly 310,000 compounds. About 14,000 (4.5%) showed an effect of 50% or more. Effects have a minus sign here. The list shows a part of the results.

Molecular target: human ether-à-go-go-related gene (hERG) potassium channel (human, UniProt Q12809)
Assay: primary screen, population patch clamp on CHO cells stably expressing hERG
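Further: peak tail current of the secondary pulse compared with the same well before compound.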

human ether-à-go-go-related gene (hERG) potassium channel, sequence (Q12809 whole entry, looked up): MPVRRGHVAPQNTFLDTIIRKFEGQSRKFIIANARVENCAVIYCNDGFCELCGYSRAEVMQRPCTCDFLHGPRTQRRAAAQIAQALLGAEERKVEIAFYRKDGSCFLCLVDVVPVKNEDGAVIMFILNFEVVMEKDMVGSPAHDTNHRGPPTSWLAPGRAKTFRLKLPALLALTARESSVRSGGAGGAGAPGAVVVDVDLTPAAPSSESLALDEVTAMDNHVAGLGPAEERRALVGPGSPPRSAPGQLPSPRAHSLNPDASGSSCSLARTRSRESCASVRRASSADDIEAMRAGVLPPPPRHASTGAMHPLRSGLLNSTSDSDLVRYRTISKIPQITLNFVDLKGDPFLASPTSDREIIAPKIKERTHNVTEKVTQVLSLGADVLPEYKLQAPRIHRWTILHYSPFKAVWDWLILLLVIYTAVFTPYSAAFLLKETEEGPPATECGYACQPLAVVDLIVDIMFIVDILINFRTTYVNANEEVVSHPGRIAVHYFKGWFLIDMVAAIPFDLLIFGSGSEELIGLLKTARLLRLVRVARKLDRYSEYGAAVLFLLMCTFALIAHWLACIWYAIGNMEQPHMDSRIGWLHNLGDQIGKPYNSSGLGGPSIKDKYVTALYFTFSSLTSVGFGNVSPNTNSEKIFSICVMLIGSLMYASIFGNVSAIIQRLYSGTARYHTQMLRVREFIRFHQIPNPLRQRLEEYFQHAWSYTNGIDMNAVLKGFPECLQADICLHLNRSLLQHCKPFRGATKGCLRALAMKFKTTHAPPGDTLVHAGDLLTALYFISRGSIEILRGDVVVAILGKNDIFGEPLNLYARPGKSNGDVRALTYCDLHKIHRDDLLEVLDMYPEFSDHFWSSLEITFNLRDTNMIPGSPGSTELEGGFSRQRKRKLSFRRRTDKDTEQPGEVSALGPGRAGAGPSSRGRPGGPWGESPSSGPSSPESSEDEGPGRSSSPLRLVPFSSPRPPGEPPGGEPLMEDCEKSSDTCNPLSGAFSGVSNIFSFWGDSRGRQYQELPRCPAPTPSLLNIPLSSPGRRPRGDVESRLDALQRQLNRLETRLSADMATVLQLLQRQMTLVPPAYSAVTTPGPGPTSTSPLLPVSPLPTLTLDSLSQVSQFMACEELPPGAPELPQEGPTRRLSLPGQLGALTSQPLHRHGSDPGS

SMILES | hERG current change (%, negative = inhibition) at 10uM
Cc1ccccc1NC(=O)c1ocnc1C | 8.41%
CS(=O)(=O)N(CC(=O)NCc1cccnc1)C1CCCCC1 | 5.98%
O=C(CCS(=O)(=O)c1ccccc1)Nc1nncs1 | 8.6%
CC(=O)Nc1nc2n(n1)C(c1ccccc1)C=C(c1ccccc1)N2 (centres unmarked) | -25.8%
O=C(CNC(=O)c1ccc(Br)o1)NCc1ccccc1Cl | 1.15%
Cc1cc(Br)ccc1OCCn1ccnc1.O=C(O)C(=O)O | -3.76%
COc1ccc(NCC(=O)Nc2ccc(Cl)cc2C)c(OC)c1 | 0.738%
CC(=O)c1ccc(OCC(=O)NC(=O)NC2CCCCC2)cc1 | 0.648%
OCCC1CN(Cc2ccc(Oc3ncccn3)cc2)CCN1Cc1ccc(F)c(F)c1 (centres unmarked) | -23.6%
CCOc1ccc(NC(=O)c2sc(N3CCOCC3)nc2-c2ccccc2)cc1 | 19.7%
CCCc1ccc(C(C)NC(=O)c2cnccn2)cc1 (centres unmarked) | 11.8%
CCC(=O)N(CC(=O)Nc1sc(C)c(C)c1C(N)=O)Cc1ccc(F)cc1 | -22.3%
COc1cc(/C=C/C(=O)NNc2c(F)c(F)cc(F)c2F)ccc1OC(F)F | 12.3%
O=C(CCNC(=O)Cn1ccc2ccccc2c1=O)NCCc1ccc(Cl)cc1 | 22.3%
Cc1ccc(C(C(=O)NC2CCCCC2)N(CCC(C)C)C(=O)CNC(=O)c2ccco2)o1 (centres unmarked) | -20.1%
O=C(CN1C(=O)C2CCCCC2C1=O)Nc1ccccc1N1CCCC1 (centres unmarked) | 1.43%
Cc1[nH]c2ccccc2c1C(=O)CN1CCCCC1CCO (centres unmarked) | -9.92%
CN(C)CCCN=Cc1c(-c2ccccc2)[nH]n(-c2nc3ccccc3s2)c1=O | -71%
O=C(NCc1ccccc1)c1cc(=O)[nH]c2ccccc12 | 10.3%

SMILES | hERG current change (%, negative = inhibition) at 10uM
O=C(NCc1cccnc1)Nc1cccc(C(F)(F)F)c1 | -4.34%
Cc1ccc(C(=O)N/C(=C\c2cccs2)C(=O)NCCCn2ccnc2)cc1 | -70.3%
Cc1ccc(C)c(S(=O)(=O)N2CCCCC2CCNC(=O)C(=O)NCCc2ccco2)c1 (centres unmarked) | -29.4%
CC(C)CN1CCC(CN(C)Cc2nc(-c3cnccn3)no2)CC1 | 7.87%
COc1ccccc1N1C(=O)c2cccc3c(Cl)ccc(c23)C1=O | 13.6%
CC1CC(C)CN(C(=O)C2CCN(S(=O)(=O)N3CCC4(CC3)OCCO4)CC2)C1 (centres unmarked) | 21.8%
O=C(Nc1ncc(Cl)cc1Cl)c1c(F)cccc1Cl | 16%
CC(=O)Nc1ccc2c(c1)OCCOCCOc1cc(NC(C)=O)ccc1OCCOCCOCCO2 | -2.81%
CN1CCN(c2ccc(S(=O)(=O)N3CCCCC3)cc2NC(=O)CSCc2ccccc2)CC1 | -20.5%
O=C1C(Cc2ccc3[nH]ccc3c2)NC(=S)N1c1ccccc1 (centres unmarked) | 7.61%
C[C@]12CC(O)C3C(CCC4=CC(=O)CC[C@@]43C)C1CCC2c1csc(-c2ccccc2)n1 (some centres unmarked) | 22.5%
CC(Oc1ccc(F)cc1)C(=O)N(CCC1=CCCCC1)c1c(N)n(Cc2ccccc2)c(=O)[nH]c1=O (centres unmarked) | -52%
COc1cccc(NC(=O)CSC2=NN3CCCC(=O)N=C3S2)c1 | 11%
O=C(Oc1ccc(/C=N/Nc2ccccc2)cc1)c1ccccc1 | 15.4%
COc1ccc(OC)c(-c2cc(C(=O)Nc3c(C)nn(Cc4ccc(Cl)cc4)c3C)no2)c1 | 16.8%
CCC(C)(C(=O)NC1CCCCC1)N(C(=O)CC1NC(=O)NC1=O)c1c(C)n(C)n(-c2ccccc2)c1=O (centres unmarked) | 12.8%
CC(=O)C1=C(O)C(=O)N(c2ccc(O)cc2)C1c1ccc(C)cc1 (centres unmarked) | 16.9%
O=S(=O)(c1ccc(Cl)cc1)N1CCCC1c1cccnc1 (centres unmarked) | 8.49%
CCN(CC(=O)Nc1ccc(Br)cc1)C(=O)c1nc2nc(C)cc(C)n2n1 | -34.6%

SMILES | hERG current change (%, negative = inhibition) at 10uM
N#CC1C(C#N)N2CCCN2C1c1ccc(Br)cc1 (centres unmarked) | 17.1%
CC(=O)c1cccc(NC(=O)c2ccc(OC3CSC3)cc2)c1 | 22.7%
CCN(CC)S(=O)(=O)c1ccc(N/N=C/c2ccccc2OCC(=O)O)c([N+](=O)[O-])c1 | 13.5%
CCc1nnc(NC(=O)CCC(=O)NC2CCCCCC2)s1 | 3.71%
CSc1ccccc1NC(=O)CN(C)CC(=O)NCc1ccccc1 | 9.48%
CC1CCN(C(=O)COC(=O)c2cc(=O)[nH]c3ccccc23)CC1 | 2.57%
Clc1ccccc1C1=CC(c2ccco2)n2ncnc2N1 (centres unmarked) | -11.3%
CCOc1ccc(/C=C/C(=O)N(C)CC(=O)Nc2cccc(F)c2)cc1OCC | 10.6%
O=C(CSCc1ccc(Br)cc1)Nc1ccccc1C(=O)N1CCOCC1 | -3%
CCOc1ccccc1C(=O)N(C)CC(=O)Nc1ccc(OC)cc1 | 12%
O=C(c1ccc2c(=O)n(C3CCCC3)c(=S)[nH]c2c1)N1CCc2ccccc21 | 8.36%
Cc1ccc(N(CCC#N)C(=O)CSc2ccc3c(c2)OCCO3)cc1 | -37.8%
COc1ccc(/C=C/C(=O)NCc2nc3ccccc3[nH]2)cc1OC | 7.85%
COCCN1CCN(C(=O)c2ccc3nc(Cc4ccccc4F)oc3c2)CC1 | -15.9%
Cc1occc1-c1nnc(SCC(=O)N2CCOCC2)n1CCc1ccccc1 | -18%
COCCSc1ccccc1C(=O)NCc1ccco1 | 4.38%
Cc1cc(C)n2cc(COc3ccc4ccccc4c3)nc2n1 | -37.6%
O=C(CN(Cc1ccccc1F)S(=O)(=O)c1ccc(Cl)cc1)NCCC1=CCCCC1 | 11.7%
